# Experimental data: PubChem BioAssay AID2100 (National Center for Advancing Translational Sciences (NCATS), 2009)
# The campaign covered roughly 300,000 compounds. About 1,200 (0.4%) were called active. Inconclusive results, whose numbers are uncertain, are shown with a selection of clear calls. The call rests on the fitted dose curve; in most records, active means well fitted inhibition curve with a large enough effect; inconclusive means small, poorly fitted or top-dose-only effect, or another doubt; inactive means no such curve, though single readings can be large or run the other way. A potency beside an inconclusive call is a rough fit, not a confirmed value.
# Target: Lysosomal alpha-glucosidase (Homo sapiens) (UniProt P10253)
# Assay: qHTS Assay for Inhibitors and Activators of Human alpha-Glucosidase Cleavage of Glycogen;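 on activity change, negative = inhibition: 0% = full enzyme reaction and -100% = no-enzyme basal signal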
# Conditions: recombinant GAA, glycogen substrate, Amplex Red glucose oxidase fluorescence; activity change, negative = inhibition: at 76.4 µM (top of the series) unless noted
# Excerpt: NIH Chemical Genomics Center [NCGC] NIH Molecular Libraries Probe Production Centers Network [MLPCN] MLPCN Grant: R03 MH084841-01 Assay Submitter (PI): Wei Zheng NCGC Assay Overview: Alpha-glucosidase is responsible for the hydrolysis of terminal, non-reducing 1,4-linked alpha-D-glucose residues, which releases alpha-D-glucose. It is a lysosomal hydrolase that is required for the degradation of a small percentage (1-3%) of cellular glycogen in humans. Deficiency of this enzyme results in glycogen-storage disease type II (GSDII), also referred to as Pompe disease, an autosomal recessive disorder. Structurally normal glycogen is accumulated in the lysosomes and cytoplasm in affected patients, primarily in muscle tissues. Excessive glycogen storage within lysosomes may interrupt normal functioning of other organelles and leads to cellular injury. In turn, this leads to enlargement and dysfunction of the entire organ involved (eg: cardiomyopathy and muscle weakness). It has been reported that the improper folding and trafficking of alpha-glucosidase resulting from genetic mutations may account for a significant number of Pompe patients. […] We optimized this alpha-glucosidase assay in 1536-well plate format for identification of novel small molecule inhibitors or activators with structures other than the sugar analogs in order to develop new pharmacological chaperones. Previous assays of alpha-Glucosidase have utilized a non-natural fluorescent substrate to probe enzyme activity. The present assay measures enzyme activity on glycogen using a coupled-assay system to glucose oxidase.
# NCGC Assay Protocol Summary: This is an enzyme assay using glycogen from bovine liver (Sigma catalog #: G0885) as the substrate and recombinant human alpha-glucosidase as the enzyme preparation. Upon hydrolysis of the substrate, the glucose product can be detected using the Amplex Red Glucose Oxidase Assay Kit (Invitrogen catalog #: A22189). The product of this reaction can be read with a fluorescence plate reader with an excitation at 573 nm and an emission at 610 nm. Data were normalized to the controls for basal activity (without enzyme) and 100% activity (with enzyme). The AC50 values were determined from concentration-response data modeled with the standard Hill equation. Assay buffer for enzyme reaction: 50 mM citric acid (titrated with potassium phosphate to pH 5.0), 0.01% Tween-20 (pH 5.0 is an optimal condition for this enzyme assay) Assay buffer for Amplex Red reaction: Tris-HCl, pH 7.5 1536-well assay protocol for the alpha-glucosidase assay: (1) Add 2 ul/well alpha-glucosidase enzyme solution (4 nM final) (2) Add 23 nL compounds in DMSO solution. The final titration was 0.7 nM to 77 uM. (3) Add 1 ul of glycogen substrate solution (30 ug) (4) Incubate at 37 C for 40 min (5) Add 2 ul tris-HCl buffer with Amplex Red reagents (6) Incubate 45 min at room temperature. (7) Detect the assay plate in a ViewLux plate reader (PerkinElmer) with Ex=573 nm and Em=610nm. Keywords: Alpha-glucosidase, Pompe Disease, pharmacological chaperone, chaperone therapy, high throughput screening, alpha-glucosidase inhibitor, MLSMR, MLSCN, NIH Roadmap, qHTS and NCGC
# Potency means the concentration at half of the fitted maximal effect.
SMILES,Potency,"activity change, negative = inhibition"
Cc1ccc(N/N=C2/CCCNC2=O)cc1,"inconclusive: 31.6 µM [inhibitor, single point]",
CCCCN(C(=O)/C=C/c1ccco1)c1c(N)n(CC(C)C)c(=O)[nH]c1=O,"inconclusive: 398 µM [inhibitor, partial curve]",
Cc1ccc2nc(-c3ccsc3)c(Nc3ccccc3C)n2c1,"inconclusive: 11.2 µM [inhibitor, partial curve]",
COCC(=O)Oc1c(Sc2ccc(C)cc2)c(C)nn1C(C)(C)C,"inconclusive: 28.2 µM [inhibitor, single point]",
Cc1ccc(NNC(=O)C(=O)N2CCCCC2)cc1,"inconclusive: 3.98 µM [inhibitor, full curve]",
CCCn1c(=O)c2sccc2n2c(CCCC(=O)NCCc3ccc(Cl)cc3)nnc12,,inactive: 19.8% [at 76.3 µM]
O=C(NNc1c(Cl)cccc1Cl)c1ccno1,"inconclusive: 5.01 µM [inhibitor, full curve]",
COCCCNC(=S)NNC(=S)Nc1ccc(F)cc1F,active: 15.7 µM,
c1ccc(-c2nc(-c3ccco3)n3ccccc23)cc1,"inconclusive: 39.8 µM [inhibitor, single point]",
S=C(NCCc1ccccc1)NN=C1CCCCCC1,"inconclusive: 31.6 µM [inhibitor, single point]",
c1ccc2nc(-c3nc4ccccc4[nH]3)ccc2c1,,inactive: 8.77%
O=C(CSc1nc2ccccc2c(=O)[nH]1)c1ccc(O)c(O)c1,"inconclusive: 25.1 µM [inhibitor, partial curve]",
Cc1c(Cl)cccc1-c1ccc(CNc2ccc3[nH]c(=O)[nH]c3c2)o1,"inconclusive: 12.6 µM [inhibitor, partial curve]",
Oc1ccc(-c2nc3ccccn3c2NCc2ccco2)cc1,active: 14 µM,
CCn1c2ccc(C)cc2c2nnc(NN)nc21,"inconclusive: 44.7 µM [activator, single point]",
Cc1cc2c(cc1S(=O)(=O)NCc1ccc(N(C)C)cc1)OCC(=O)N2,"inconclusive: 14.1 µM [inhibitor, partial curve]",
CCC(=O)Oc1ccc2c(C)cc(=O)oc2c1C(=O)CC,"inconclusive: 2.22 µM [inhibitor, partial curve]",
COc1ccc(C2CC(=O)C=C(NNS(=O)(=O)c3ccc(C)cc3)C2)cc1 (configuration not stated),"inconclusive: 31.6 µM [inhibitor, partial curve]",
Cc1c(N=NC2=C(O)CC(C)(C)CC2=O)c(=O)n(-c2ccccc2)n1C,"inconclusive: 39.5 µM [inhibitor, partial curve]",
Cc1c(N=C/C=C2/N(C)c3ccccc3C2(C)C)c(=O)n(-c2ccccc2)n1C,"inconclusive: 39.5 µM [inhibitor, single point]",
O=C(NCCN1CCOCC1)c1ccc2c(c1)N(Cc1ccccc1F)C(=O)c1ccccc1S2,,inactive: -0.0647%
CCn1c2ccccc2c2cc(C3C(C#N)=C(N)Oc4n[nH]c(COC)c43)ccc21 (configuration not stated),"inconclusive: 24.9 µM [inhibitor, partial curve]",
COc1ccc(/C=N/n2c(-c3cccs3)n[nH]c2=S)cc1,"inconclusive: 19.8 µM [inhibitor, partial curve]",

SMILES,Potency,"activity change, negative = inhibition"
COc1cccc(N2CCN(C(=O)C3CCC(CNS(=O)(=O)c4ccc(Br)s4)CC3)CC2)c1 (configuration not stated),,inactive: 15.3% [at 76.3 µM]
Cc1nnc(N/N=C/c2cccc(OCc3ccc(Cl)c(Cl)c3)c2)n1N,"inconclusive: 31.6 µM [inhibitor, single point]",
CCC1(C)N(O)C(C)(C)C(c2ccc(OC)cc2)=[N+]1[O-] (configuration not stated),"inconclusive: 28.2 µM [inhibitor, partial curve]",
COc1ccc(C2CC(C)=C(C#N)S(=O)(=O)C2C#N)cc1 (configuration not stated),"inconclusive: 28.2 µM [inhibitor, partial curve]",
COc1cc(C2NC(=O)NC(C)=C2C(=O)Nc2cc(C)cc(C)c2)ccc1O (configuration not stated),"inconclusive: 35.5 µM [inhibitor, single point]",
CCOC(=O)c1c(C)c(-c2ccccc2)n(CC(=O)Nc2cc(OC)cc(OC)c2)c1C,,inactive: -7.71% [at 76.3 µM]
CC(C)c1nc(SCC(=O)N2CCCCCC2)c2c(=O)n(C)c(=O)n(C)c2n1,"inconclusive: 2 µM [inhibitor, partial curve]",
CC(=O)c1sc(N/N=C\c2cccc(Br)c2)nc1C,"inconclusive: 14.1 µM [inhibitor, partial curve]",
COc1cc(/C=C(\C#N)c2[nH]nc(N)c2C#N)cc(OC)c1O,"inconclusive: 3.14 µM [inhibitor, full curve]",
O=C1Cc2ccccc2C(=O)N1c1ccccc1,"inconclusive: 50.1 µM [inhibitor, single point]",
O=C(CCl)N1CCN(S(=O)(=O)c2ccc3ccccc3c2)CC1,,inactive: -6.76% [at 76.3 µM]
CC(C)Oc1ccc(OCCn2c(=S)[nH]c3c(N)ncnc32)cc1,"inconclusive: 31.6 µM [inhibitor, single point]",
Cc1noc(-c2ccccc2OCC(=O)Nc2cccc([N+](=O)[O-])c2)n1,"inconclusive: 35.5 µM [inhibitor, partial curve]",
COC(=O)CCc1sc(Nc2ccc(OC)cc2)nc1-c1ccc(OC)cc1,"inconclusive: 17.8 µM [inhibitor, partial curve]",
Cc1cc(C)nc(NNC2=CC(=O)CC(C)(C)C2)n1,"inconclusive: 15.7 µM [inhibitor, partial curve]",
O=C(CN1CCN(S(=O)(=O)c2ccc(Cl)cc2)CC1)c1ccc(O)c(O)c1,active: 8.91 µM,
CCOC(=O)/C(=N\Nc1cc(Cl)ccc1Cl)N1CCOCC1,"inconclusive: 35.2 µM [inhibitor, single point]",
COCCNC(=O)CCC(=O)NNc1nc2ccccc2c2nc(-c3ccccc3)nn12,"inconclusive: 10 µM [inhibitor, partial curve]",
O=C(N/N=C/c1ccccc1O)NC12CC3CC(CC(C3)C1)C2,,inactive: -5.89%
CCOc1cc(/C=N/NC(=O)Nc2ccccc2)ccc1O,"inconclusive: 9.92 µM [inhibitor, partial curve]",
COc1ccc(-c2csc(NCc3ccco3)n2)cc1C,"inconclusive: 22.2 µM [inhibitor, single point]",
Cc1cccc(NS(=O)(=O)c2ccc(C(=O)N3CCN(c4ccccc4O)CC3)cc2)c1C,active: 4.47 µM,
Clc1ccc2nc(-c3ccccn3)c(Nc3ccc4c(c3)OCO4)n2c1,"inconclusive: 15.8 µM [inhibitor, partial curve]",

SMILES,Potency,"activity change, negative = inhibition"
Oc1ccc(/C=N/Nc2ccc(Cl)nn2)c(O)c1O,"inconclusive: 8.91 µM [inhibitor, full curve, poor fit]",
CC(=O)c1c(O)c(C)c(O)c2c1OC1=CC(=O)C(C(C)=O)C(=O)[C@@]12C (some centres not stated),"inconclusive: 56.2 µM [inhibitor, single point]",
CN(C)CCCN(C(=O)c1ccc(S(=O)(=O)N2CCCCC2)cc1)c1nc2cc3c(cc2s1)OCO3,,inactive: 1.03% [at 76.3 µM]
CCC(=O)NCCCNc1nc2c(C)cccc2cc1C#N,"inconclusive: 28 µM [activator, single point]",
C=CCNC(=S)NNc1nc2c(c(=O)[nH]1)C1(CCCCC1)Cc1ccccc1-2,"inconclusive: 3.95 µM [inhibitor, full curve]",
Cc1cc(-c2nc(C)c(C(=O)NNS(=O)(=O)c3ccccc3)s2)no1,"inconclusive: 12.6 µM [inhibitor, partial curve]",
CNc1c([N+](=O)[O-])cnn1-c1ccc(Cl)cc1Cl,,inactive: -11.5%
COc1ccc(O)c(-c2[nH]ncc2C(=O)c2cccc(C)c2)c1,"inconclusive: 12.6 µM [inhibitor, partial curve, poor fit]",
CCc1ccc(C(=O)c2cn(CC(=O)Nc3ccc(F)cc3)c3cc4c(cc3c2=O)OCO4)cc1,,inactive: -7.61% [at 76.3 µM]
Cc1ccc(Nc2c(-c3ccc(C)cc3)nc3cnccn23)cc1,"inconclusive: 7.08 µM [inhibitor, full curve]",
COC(=O)c1ccc(N2NC(=O)/C(=C/c3cc(OC)c(O)c(OC)c3)C2=O)cc1,"inconclusive: 7.08 µM [inhibitor, partial curve]",
C/C(=N\NC(=S)Nc1c(C)cccc1C)c1ccc(OC(F)F)cc1,"inconclusive: 35.5 µM [inhibitor, partial curve]",
C=Cc1ccc(CSc2nc(-c3ccc(OC)cc3)nc3c2Cc2c(CO)cnc(C)c2O3)cc1,"inconclusive: 56.2 µM [inhibitor, single point]",
Cc1ccc2ccc(C(Nc3ccccn3)c3ccccc3)c(O)c2n1 (configuration not stated),inactive,
CN1CCC2(CC1)C1CN(C)CC=C1C(C#N)=C(N)C2(C#N)C#N (configuration not stated),"inconclusive: 39.8 µM [activator, single point]",
Cc1cc(N2CCOCC2)nc2ccc(NC(=S)N3CCCCC3C)cc12 (configuration not stated),"inconclusive: 28.2 µM [inhibitor, partial curve]",
N#C/C(=C\c1ccc(N2CCOCC2)o1)c1ccccc1,"inconclusive: 15.8 µM [activator, partial curve]",
COc1ccc(NCC(O)Cn2c(C)c(C)c3ccccc32)cc1 (configuration not stated),"inconclusive: 31.6 µM [inhibitor, partial curve]",
Cc1ccc2nc(-c3ccccn3)c(Nc3ccc(F)cc3)n2c1,"inconclusive: 5.62 µM [inhibitor, full curve]",
COc1cc(/C=N/Nc2ccc(Cl)cc2)ccc1OC(=O)c1cccs1,"inconclusive: 39.8 µM [inhibitor, partial curve]",
CCc1ccccc1NNC(=O)CCc1ccccc1,"inconclusive: 5.01 µM [inhibitor, full curve]",
